# Experimental data as given in the BET-seq Pho4 binding data (Le et al. 2018).
# The other results are listed elsewhere or left out. These are noisy estimates, calculated here from bound and input reads.
# Biological target: T1, Pho4 (S. cerevisiae) (UniProt P07270)
# T1 sequence: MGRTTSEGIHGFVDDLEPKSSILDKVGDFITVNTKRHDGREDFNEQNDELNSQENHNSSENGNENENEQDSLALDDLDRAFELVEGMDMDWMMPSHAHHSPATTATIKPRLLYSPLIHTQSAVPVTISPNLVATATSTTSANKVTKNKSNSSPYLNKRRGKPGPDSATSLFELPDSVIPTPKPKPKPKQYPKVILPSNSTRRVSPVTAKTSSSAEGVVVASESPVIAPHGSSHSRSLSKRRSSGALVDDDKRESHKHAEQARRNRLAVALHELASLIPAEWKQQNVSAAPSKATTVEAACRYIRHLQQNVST
# Assay: relative binding free energy (BET-seq); higher = weaker binding
# Conditions: reference: library average
row,Sequence,relative binding free energy [kcal/mol]
1,CGGGGCACGTGAAGCT,0.13
2,GTTCTCACGTGGGGTC,0.19
3,AAAATCACGTGAGAGT,0.49
4,TGTGTCACGTGATTTG,0.18
5,GGGGTCACGTGCTGGG,0.09
6,CAGGGCACGTGGAGGA,-0.24
7,TGCCTCACGTGTGGGA,0.27
8,CGAGTCACGTGGGGAT,-0.06
9,AATGACACGTGGTGAG,0.02
10,TCAGTCACGTGTAAGG,0.17
11,CAGGGCACGTGGTGTA,-0.21
12,ATAGTCACGTGGGCGC,0.02
13,ATATGCACGTGTTGCG,0.02
14,CATGTCACGTGTAGGT,0.13
15,TTATGCACGTGATAAA,0.03
16,GTAACCACGTGTATGT,0.15
17,GTCAGCACGTGGGCTG,-0.08
18,TGGTACACGTGGGACG,0
19,ATGATCACGTGTAGGA,0.24
20,GCGGGCACGTGGAGGT,-0.03
21,TGGCTCACGTGGTCGT,0.13
22,AGTTGCACGTGTACGG,0.07
23,TTGATCACGTGAATAA,0.48
24,TTGGTCACGTGAGATT,0.29
25,TGTGCCACGTGAATTG,0.12
26,GGGGTCACGTGGCGTT,0.17

row,Sequence,relative binding free energy [kcal/mol]
1,TCTTGCACGTGCGGTT,-0.04
2,GGAAACACGTGGGATT,-0.04
3,GGTTGCACGTGGGGAT,-0.06
4,GGACTCACGTGTTTGT,0.25
5,ATGATCACGTGTGAAA,0.25
6,ATGCTCACGTGAGTGG,0.17
7,TTTGGCACGTGGGGTC,-0.16
8,GAAATCACGTGGGGTT,0.22
9,GGTTACACGTGATCGG,0.29
10,TAGTTCACGTGGCGAG,0.28
11,TCTTTCACGTGTTTTC,0.34
12,TGTTTCACGTGGCAGA,0.21
13,TATAGCACGTGGTTGG,-0.19
14,GAATTCACGTGGGGTA,0.13
15,AAGGTCACGTGGTAAA,0.13
16,TGGGACACGTGTTTTC,-0.01
17,AGTATCACGTGACGGT,0.18
18,GGATGCACGTGTTCTT,0.2
19,GTATGCACGTGAAAGG,0.32
20,TCTTGCACGTGGTTCT,0.07
21,GTGGTCACGTGAAGTG,0.33
22,CGGTACACGTGGGAAG,0
23,TGTGTCACGTGTCTAA,0.05
24,TTTAACACGTGAAGGA,0.17
25,CATTGCACGTGAAGGT,0.04
26,AATAGCACGTGCGAGT,0

row,Sequence,relative binding free energy [kcal/mol]
1,AGTAGCACGTGTGCTA,0.06
2,GGCGACACGTGGTGTT,-0.04
3,TTATACACGTGACGTG,0.04
4,TAAGACACGTGGTGGT,-0.08
5,TATAGCACGTGGATTA,0.02
6,TCATGCACGTGAAGTG,0.12
7,GGTATCACGTGGACGA,0.33
8,TTCTGCACGTGGAGTT,0.06
9,TGTAGCACGTGGTTGT,-0.1
10,GGGGCCACGTGAGTTT,0.27
11,GCCGGCACGTGTAGGG,0.03
12,GAGAGCACGTGTTGGA,0.04
13,GAGGACACGTGTTTCG,0.14
14,AAATGCACGTGTGTTA,0.12
15,TTCTTCACGTGTATGC,0.28
16,GAAGGCACGTGCGGGC,-0.12
17,TGCCGCACGTGGTAGT,0
18,TACTACACGTGTTTGG,0.05
19,GGTTGCACGTGGGTAC,-0.14
20,AGAAGCACGTGTTGAG,-0.02
21,GTTGGCACGTGCTTGC,-0.04
22,TCATTCACGTGGGCGG,0.07
23,GTATACACGTGTGGTA,0.08
24,CGCAGCACGTGTTGGG,0.03
25,AGTGGCACGTGTTATT,-0.01
26,TTTAACACGTGTGTCT,-0.11

row,Sequence,relative binding free energy [kcal/mol]
1,CGTGGCACGTGACAGG,0.01
2,TTTAGCACGTGAGGGC,0.1
3,GGCGTCACGTGGAGTT,0.18
4,AGCGGCACGTGGGGGA,-0.28
5,TTTAACACGTGTAGGG,0.05
6,TACGGCACGTGGGTCG,-0.37
7,TGGGTCACGTGTAACA,0.18
8,TGTTGCACGTGACTTT,0
9,GTCGGCACGTGTGCGA,0.09
10,CTGGTCACGTGTTTAA,0.14
11,CATTGCACGTGTTTAG,-0.07
12,GTTTTCACGTGAACTT,0.39
13,TGGGTCACGTGGGGCA,-0.1
14,TACGTCACGTGGGGCG,-0.16
15,TGAAACACGTGGGCAG,-0.1
16,ATTGACACGTGAGGCT,0.16
17,TAGACCACGTGTTGGT,-0.09
18,CTACTCACGTGTGGGG,0.12
19,TTGGGCACGTGCAATG,-0.05
20,CGTTTCACGTGTCGGC,0.46
21,TTCTTCACGTGTGGTA,0.26
22,TGGTGCACGTGTATCT,0.09
23,GGCCGCACGTGAGGGT,0.25
24,GGACCCACGTGTGTGG,-0.11
25,GATTACACGTGGGGTG,0.04
26,TTTCTCACGTGTATAA,0.3

row,Sequence,relative binding free energy [kcal/mol]
1,TCTTTCACGTGGCGGA,0.36
2,GAGATCACGTGGGGGA,0.03
3,TTAGGCACGTGCATTG,-0.23
4,GGTGGCACGTGGACGT,-0.08
5,AGGTGCACGTGAGTCT,0.04
6,ACGAGCACGTGGGAGT,-0.26
7,GTTGTCACGTGTATCG,0.2
8,GTGGTCACGTGGGATT,0.15
9,GGTTGCACGTGGGGAC,-0.12
10,TTAGCCACGTGTGTGG,-0.1
11,AAGAGCACGTGTTAGG,-0.12
12,TTTGGCACGTGTGGGC,0
13,GTGTTCACGTGCGGTG,0.25
14,AGAAGCACGTGTGGAT,-0.15
15,CTAGTCACGTGGGGTT,-0.08
16,TAGCACACGTGGGGAG,-0.13
17,AGTGGCACGTGGGAAC,-0.1
18,ACCGGCACGTGGGGGT,-0.09
19,CGGTTCACGTGGGGAA,0.17
20,TGGCACACGTGGGCGA,-0.03
21,CTGAGCACGTGTGGGT,-0.14
22,GGGGACACGTGTCGTT,0.06
23,TAGTGCACGTGAGCGG,0.06
24,TTCGGCACGTGGTGGT,-0.25
25,GCTGGCACGTGGCATG,-0.09
26,CATTTCACGTGGGTCT,0.19

row,Sequence,relative binding free energy [kcal/mol]
1,GGTGTCACGTGTAGAG,0.19
2,TAATGCACGTGGGAGA,-0.3
3,TTTTACACGTGGCTTG,0.04
4,GCGTACACGTGAGGTG,0.3
5,GGCCGCACGTGTCGGG,0.15
6,TGAAACACGTGATAAG,0.52
7,GGGTACACGTGATATG,0.1
8,ATGTCCACGTGTAGGA,0.06
9,GCGTGCACGTGTGCGT,-0.07
10,GTATCCACGTGTGAGG,0.12
11,TTGTACACGTGGCAAG,0.05
12,AGAGTCACGTGGAAGG,0.15
13,TAGTTCACGTGTTTAC,0.31
14,AGGCCCACGTGGTGGA,-0.13
15,GTTGGCACGTGACAGT,-0.13
16,GTAGTCACGTGCTGGT,0.07
17,GTTCGCACGTGTGTAT,-0.03
18,TTATGCACGTGATTTC,0.18
19,GATGTCACGTGAATTA,0.43
20,TCAAACACGTGTGGTG,-0.06
21,TTAAGCACGTGCGTGC,-0.1
22,TTAAGCACGTGTCGTT,-0.03
23,GGTGCCACGTGGCGGG,-0.2
24,ATTATCACGTGTGACG,0.17
25,GAAGGCACGTGCGGTT,-0.04
26,GGTCTCACGTGCGTTT,0.32

row,Sequence,relative binding free energy [kcal/mol]
1,GTTAGCACGTGTTAAA,0.09
2,TCTTGCACGTGAGGGA,0.19
3,ATGCCCACGTGGGGGG,-0.25
4,AATAACACGTGGTTTG,-0.08
5,TTGGACACGTGTTGAG,0.04
6,CCTGGCACGTGGGTAG,-0.28
7,GACTGCACGTGTTGGT,0.06
8,TTTTGCACGTGACGAA,0.07
9,GTTCACACGTGTGAGG,0.19
10,GTTGTCACGTGGACTA,0.18
11,CGGTGCACGTGAGCGT,0.1
12,GGGGTCACGTGTGCGA,0.16
13,TCAGACACGTGTTTGG,-0.09
14,GGGGTCACGTGCAGTA,0.22
15,TTTGTCACGTGGCAGC,0.01
16,TGGTCCACGTGGCTTG,-0.06
17,GGTGTCACGTGTGAGG,0.24
18,ATGGGCACGTGTAGTG,-0.08
19,TGCGGCACGTGAGAAG,0.11
20,ATATGCACGTGTATTG,-0.08
21,AAGTTCACGTGAAAGT,0.33
22,GTGCTCACGTGTTAGG,0.27
23,GATATCACGTGAGTTT,0.37
24,ATAATCACGTGGATTG,0.08
25,ATGAGCACGTGGCGGG,-0.29
26,TGGGGCACGTGAGTAT,0.14

row,Sequence,relative binding free energy [kcal/mol]
1,TGTGGCACGTGTGCTT,-0.25
2,TCTTACACGTGGGTCT,0.14
3,TTGAGCACGTGGGGTA,-0.19
4,GAATGCACGTGGGGGC,-0.09
5,AGTATCACGTGGGCTG,0.14
6,TGGGGCACGTGGACCT,-0.19
7,GTTTTCACGTGTTCCT,0.28
8,CAGTACACGTGATGTT,0.22
9,AAAGGCACGTGCCGGG,-0.17
10,AGGCTCACGTGTGAGG,0.27
11,CTATGCACGTGGTTGG,-0.06
12,TTAGTCACGTGAGGGG,0.38
13,ATAGGCACGTGGGGTT,-0.29
14,TAGGGCACGTGACTAG,0.01
15,TCGGGCACGTGCTGGG,-0.21
16,ATCGTCACGTGGTGTG,0.07
17,TTGGGCACGTGGTTAA,-0.25
18,GGTGTCACGTGCCATT,0.06
19,GGGATCACGTGGCAGT,0.16
20,TAGCGCACGTGAGGGT,-0.02
21,AAAGTCACGTGTAGAG,0.11
22,AAGATCACGTGGATTG,0.12
23,TTTCGCACGTGGTCGT,-0.08
24,GGGTTCACGTGACGGA,0.53
25,TATGGCACGTGTAGAG,-0.05
26,GGTTTCACGTGTCCGT,0.35

row,Sequence,relative binding free energy [kcal/mol]
1,TAAGTCACGTGTATAG,-0.15
2,TTTGACACGTGTGTCA,0.03
3,GGGCGCACGTGGTAGG,-0.18
4,AGGCACACGTGAGTTG,0.26
5,TGTGACACGTGTGTTT,-0.04
6,CCTGGCACGTGGTTGT,-0.18
7,GGGTGCACGTGGTAGG,-0.09
8,TGTGCCACGTGTGCGA,0.01
9,GATTTCACGTGTATGG,0.18
10,TTGGGCACGTGTATAT,-0.06
11,CTTTTCACGTGAAGTA,0.41
12,TTGCTCACGTGTGCGA,0.28
13,GGGTACACGTGTAGGT,0.19
14,ATCGTCACGTGGAGGT,0.14
15,ATCGACACGTGTGGTT,0.12
16,TAGGGCACGTGTCTTG,-0.08
17,AGTGGCACGTGAAGAC,0.25
18,ATGTGCACGTGAGTGT,0.11
19,TGATCCACGTGGTTGG,-0.08
20,GATGTCACGTGCGGGT,0.18
21,TGTTTCACGTGAGGGT,0.44
22,GGGCACACGTGAGTAG,0.28
